Data published in the supplement of paper PMC8728848.
Some of the results follow.

Assays:
Assay in all cases: glycan array binding signal (z-score within array); higher = stronger binding
Conditions in all cases: glycan notation: IUPAC condensed, linker removed
Fuc(a1-2)Gal = target: Fuc(a1-2)Gal
Procedure, shortened: (§1)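 From the Consortium for Functional Glycomics database, 3228 arrays were curated, keeping only those whose protein sequence was available. Binding is given as a within-array Z-score averaged across arrays sharing a protein sequence and across linkers. Negative Z-scores can be read as non-binding.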

Fuc(a1-2)Gal(b1-3)GalNAc = target: Fuc(a1-2)Gal(b1-3)GalNAc
Procedure, shortened: as §1

[1] = target: Fuc(a1-2)Gal(b1-3)GalNAc(b1-3)Gal
Procedure, shortened: as §1

[2] = target: Fuc(a1-2)Gal(b1-3)GalNAc(b1-3)Gal(a1-4)Gal(b1-4)Glc
Procedure, shortened: as §1

[3] = target: Fuc(a1-2)Gal(b1-3)GalNAc(b1-4)[Neu5Ac(a2-3)]Gal(b1-4)Glc
Procedure, shortened: as §1

Fuc(a1-2)Gal(b1-3)GlcNAc = target: Fuc(a1-2)Gal(b1-3)GlcNAc
Procedure, shortened: as §1

[4] = target: Fuc(a1-2)Gal(b1-3)[Fuc(a1-4)]GlcNAc
Procedure, shortened: as §1

Fuc(a1-2)Gal(b1-4)Glc = target: Fuc(a1-2)Gal(b1-4)Glc
Procedure, shortened: as §1

Fuc(a1-2)Gal(b1-4)GlcNAc = target: Fuc(a1-2)Gal(b1-4)GlcNAc
Procedure, shortened: as §1

[5] = target: Fuc(a1-2)Gal(b1-4)GlcNAc(b1-3)Gal(b1-4)GlcNAc
Procedure, shortened: as §1

[6] = target: Fuc(a1-2)Gal(b1-4)GlcNAc(b1-3)Gal(b1-4)GlcNAc(b1-3)Gal(b1-4)GlcNAc
Procedure, shortened: as §1

[7] = target: Fuc(a1-2)Gal(b1-4)[Fuc(a1-3)]GlcNAc
Procedure, shortened: as §1

Fuc(a1-2)GlcNAc = target: Fuc(a1-2)GlcNAc
Procedure, shortened: as §1

Fuc(a1-2)[Gal(a1-3)]Gal = target: Fuc(a1-2)[Gal(a1-3)]Gal
Procedure, shortened: as §1

[8] = target: Fuc(a1-2)[Gal(a1-3)]Gal(b1-4)GlcNAc
Procedure, shortened: as §1

[9] = target: Fuc(a1-2)[Gal(a1-4)]Gal(b1-4)GlcNAc
Procedure, shortened: as §1

[10] = target: Fuc(a1-2)[GalNAc(a1-3)]Gal
Procedure, shortened: as §1

[11] = target: Fuc(a1-2)[GalNAc(a1-3)]Gal(b1-4)GlcNAc
Procedure, shortened: as §1

[12] = target: Fuc(a1-2)[GalNAc(a1-4)]Gal(b1-4)GlcNAc
Procedure, shortened: as §1

[13] = target: Fuc(a1-2)[GalNAc(b1-3)]Gal
Procedure, shortened: as §1

Fuc(a1-3)GlcNAc = target: Fuc(a1-3)GlcNAc
Procedure, shortened: as §1

[14] = target: Fuc(a1-3)[Gal(b1-4)]GlcNAc
Procedure, shortened: as §1

[15] = target: Fuc(a1-3)[Gal(b1-4)]GlcNAc(b1-3)Gal(b1-4)[Fuc(a1-3)]GlcNAc
Procedure, shortened: as §1

[16] = target: Fuc(a1-3)[Gal(b1-4)]GlcNAc(b1-3)Gal(b1-4)[Fuc(a1-3)]GlcNAc(b1-3)Gal(b1-4)[Fuc(a1-3)]GlcNAc
Procedure, shortened: as §1

[17] = target: Fuc(a1-3)[Gal3S(b1-4)]GlcNAc
Procedure, shortened: as §1

Fuc(b1-3)GlcNAc = target: Fuc(b1-3)GlcNAc
Procedure, shortened: as §1

Gal(a1-2)Gal = target: Gal(a1-2)Gal
Procedure, shortened: as §1

Gal(a1-3)Gal = target: Gal(a1-3)Gal
Procedure, shortened: as §1

Gal(a1-3)Gal(b1-4)Glc = target: Gal(a1-3)Gal(b1-4)Glc
Procedure, shortened: as §1

Gal(a1-3)Gal(b1-4)GlcNAc = target: Gal(a1-3)Gal(b1-4)GlcNAc
Procedure, shortened: as §1

[18] = target: Gal(a1-3)Gal(b1-4)[Fuc(a1-3)]GlcNAc
Procedure, shortened: as §1

Gal(a1-3)GalNAc = target: Gal(a1-3)GalNAc
Procedure, shortened: as §1

[19] = target: Gal(a1-3)[Gal(a1-4)]Gal(b1-4)GlcNAc
Procedure, shortened: as §1

Gal(a1-4)Gal(b1-4)Glc = target: Gal(a1-4)Gal(b1-4)Glc
Procedure, shortened: as §1

Gal(a1-4)Gal(b1-4)GlcNAc = target: Gal(a1-4)Gal(b1-4)GlcNAc
Procedure, shortened: as §1

Gal(a1-4)GlcNAc = target: Gal(a1-4)GlcNAc
Procedure, shortened: as §1

Gal(a1-6)Glc = target: Gal(a1-6)Glc
Procedure, shortened: as §1

Gal(b1-2)Gal = target: Gal(b1-2)Gal
Procedure, shortened: as §1

Gal(b1-3)Gal = target: Gal(b1-3)Gal
Procedure, shortened: as §1

Gal(b1-3)GalNAc = target: Gal(b1-3)GalNAc
Procedure, shortened: as §1

[20] = target: Gal(b1-3)GalNAc(b1-4)Gal(b1-4)Glc
Procedure, shortened: as §1

[21] = target: Gal(b1-3)GalNAc(b1-4)[Neu5Ac(a2-3)]Gal(b1-4)Glc
Procedure, shortened: as §1

Gal(b1-3)GlcNAc = target: Gal(b1-3)GlcNAc
Procedure, shortened: as §1

[22] = target: Gal(b1-3)GlcNAc(b1-3)Gal(b1-4)Glc
Procedure, shortened: as §1

[23] = target: Gal(b1-3)[Fuc(a1-4)]GlcNAc
Procedure, shortened: as §1

[24] = target: Gal(b1-3)[GlcNAc(b1-6)]GalNAc
Procedure, shortened: as §1

[25] = target: Gal(b1-3)[Neu5Ac(a2-6)]GalNAc
Procedure, shortened: as §1

[26] = target: Gal(b1-3)[Neu5Ac(a2-6)]GlcNAc(b1-4)Gal(b1-4)Glc
Procedure, shortened: as §1

[27] = target: Gal(b1-3)[Neu5Ac(b2-6)]GalNAc
Procedure, shortened: as §1

[28] = target: Gal(b1-4)GalNAc(a1-3)[Fuc(a1-2)]Gal(b1-4)GlcNAc
Procedure, shortened: as §1

Gal(b1-4)Glc = target: Gal(b1-4)Glc
Procedure, shortened: as §1

Gal(b1-4)Glc6S = target: Gal(b1-4)Glc6S
Procedure, shortened: as §1

Gal(b1-4)GlcNAc = target: Gal(b1-4)GlcNAc
Procedure, shortened: as §1

[29] = target: Gal(b1-4)GlcNAc(b1-3)Gal(b1-4)Glc
Procedure, shortened: as §1

[30] = target: Gal(b1-4)GlcNAc(b1-3)Gal(b1-4)GlcNAc
Procedure, shortened: as §1

[31] = target: Gal(b1-4)GlcNAc(b1-3)Gal(b1-4)GlcNAc(b1-3)Gal(b1-4)GlcNAc
Procedure, shortened: as §1

[32] = target: Gal(b1-4)GlcNAc(b1-3)Gal(b1-4)[Fuc(a1-3)]GlcNAc(b1-3)Gal(b1-4)[Fuc(a1-3)]GlcNAc
Procedure, shortened: as §1

[33] = target: Gal(b1-4)GlcNAc(b1-3)GalNAc
Procedure, shortened: as §1

[34] = target: Gal(b1-4)GlcNAc(b1-3)[Gal(b1-4)GlcNAc(b1-6)]GalNAc
Procedure, shortened: as §1

[35] = target: Gal(b1-4)GlcNAc(b1-6)GalNAc
Procedure, shortened: as §1

[36] = target: Gal(b1-4)GlcNAc(b1-6)[Gal(b1-3)]GalNAc
Procedure, shortened: as §1

Gal3S(b1-3)GalNAc = target: Gal3S(b1-3)GalNAc
Procedure, shortened: as §1

Gal3S(b1-3)GlcNAc = target: Gal3S(b1-3)GlcNAc
Procedure, shortened: as §1

[37] = target: Gal3S(b1-3)[Fuc(a1-4)]GlcNAc
Procedure, shortened: as §1

Gal3S(b1-4)Glc = target: Gal3S(b1-4)Glc
Procedure, shortened: as §1

Gal3S(b1-4)Glc6S = target: Gal3S(b1-4)Glc6S
Procedure, shortened: as §1

Gal3S(b1-4)GlcNAc = target: Gal3S(b1-4)GlcNAc
Procedure, shortened: as §1

Gal4S(b1-4)GlcNAc = target: Gal4S(b1-4)GlcNAc
Procedure, shortened: as §1

Gal6S(b1-4)Glc = target: Gal6S(b1-4)Glc
Procedure, shortened: as §1

Gal6S(b1-4)Glc6S = target: Gal6S(b1-4)Glc6S
Procedure, shortened: as §1

GalNAc(a1-3)Gal = target: GalNAc(a1-3)Gal
Procedure, shortened: as §1

GalNAc(a1-3)GalNAc = target: GalNAc(a1-3)GalNAc
Procedure, shortened: as §1

B1: CGL3 (Coprinopsis cinerea) (protein)
chain: MGHHHHHHHHSGFHILRLESTVDLSEPLKDNGIIVFQSDKLDLEPSPNLGPTGIDNTNVNLINAKGDVLLHIGIRRRENAFVFNSIPYGESRGPEERIPLEGTFGDRRDPSITVFDHPDRYQIMIDYKTVYYYKKRLEGRCEKVSYKINEGQTPPFSDVLGVTVLYFANVMPRAN
Fuc(a1-2)Gal
  glycan array binding signal (z-score): -0.172
Fuc(a1-2)Gal(b1-3)GalNAc
  glycan array binding signal (z-score): -0.196
[1]
  glycan array binding signal (z-score): 0.101
[2]
  glycan array binding signal (z-score): 0.189
[3]
  glycan array binding signal (z-score): -0.167
Fuc(a1-2)Gal(b1-3)GlcNAc
  glycan array binding signal (z-score): -0.196
[4]
  glycan array binding signal (z-score): -0.209
Fuc(a1-2)Gal(b1-4)Glc
  glycan array binding signal (z-score): -0.2
Fuc(a1-2)Gal(b1-4)GlcNAc
  glycan array binding signal (z-score): -0.206
[5]
  glycan array binding signal (z-score): -0.175
[6]
  glycan array binding signal (z-score): -0.205
[7]
  glycan array binding signal (z-score): -0.152
Fuc(a1-2)GlcNAc
  glycan array binding signal (z-score): -0.199
Fuc(a1-2)[Gal(a1-3)]Gal
  glycan array binding signal (z-score): -0.212
[8]
  glycan array binding signal (z-score): -0.2
[9]
  glycan array binding signal (z-score): -0.189
[10]
  glycan array binding signal (z-score): -0.207
[11]
  glycan array binding signal (z-score): -0.193
[12]
  glycan array binding signal (z-score): -0.216
[13]
  glycan array binding signal (z-score): -0.134
Fuc(a1-3)GlcNAc
  glycan array binding signal (z-score): -0.176
[14]
  glycan array binding signal (z-score): -0.213
[15]
  glycan array binding signal (z-score): -0.138
[16]
  glycan array binding signal (z-score): -0.206
[17]
  glycan array binding signal (z-score): -0.19
Fuc(b1-3)GlcNAc
  glycan array binding signal (z-score): -0.18
Gal(a1-2)Gal
  glycan array binding signal (z-score): -0.194
Gal(a1-3)Gal
  glycan array binding signal (z-score): -0.199
Gal(a1-3)Gal(b1-4)Glc
  glycan array binding signal (z-score): -0.206
Gal(a1-3)Gal(b1-4)GlcNAc
  glycan array binding signal (z-score): -0.21
[18]
  glycan array binding signal (z-score): -0.216
Gal(a1-3)GalNAc
  glycan array binding signal (z-score): -0.208
[19]
  glycan array binding signal (z-score): -0.217
Gal(a1-4)Gal(b1-4)Glc
  glycan array binding signal (z-score): 0.612
Gal(a1-4)Gal(b1-4)GlcNAc
  glycan array binding signal (z-score): -0.049
Gal(a1-4)GlcNAc
  glycan array binding signal (z-score): -0.204
Gal(a1-6)Glc
  glycan array binding signal (z-score): -0.147
Gal(b1-2)Gal
  glycan array binding signal (z-score): -0.169
Gal(b1-3)Gal
  glycan array binding signal (z-score): -0.151
Gal(b1-3)GalNAc
  glycan array binding signal (z-score): -0.16
[20]
  glycan array binding signal (z-score): -0.1
[21]
  glycan array binding signal (z-score): -0.23
Gal(b1-3)GlcNAc
  glycan array binding signal (z-score): -0.179
[22]
  glycan array binding signal (z-score): 2.51
[23]
  glycan array binding signal (z-score): -0.173
[24]
  glycan array binding signal (z-score): -0.181
[25]
  glycan array binding signal (z-score): -0.206
[26]
  glycan array binding signal (z-score): -0.124
[27]
  glycan array binding signal (z-score): -0.191
[28]
  glycan array binding signal (z-score): -0.214
Gal(b1-4)Glc
  glycan array binding signal (z-score): -0.06
Gal(b1-4)Glc6S
  glycan array binding signal (z-score): -0.131
Gal(b1-4)GlcNAc
  glycan array binding signal (z-score): -0.194
[29]
  glycan array binding signal (z-score): 1.43
[30]
  glycan array binding signal (z-score): -0.214
[31]
  glycan array binding signal (z-score): -0.21
[32]
  glycan array binding signal (z-score): -0.188
[33]
  glycan array binding signal (z-score): -0.201
[34]
  glycan array binding signal (z-score): -0.202
[35]
  glycan array binding signal (z-score): -0.182
[36]
  glycan array binding signal (z-score): -0.193
Gal3S(b1-3)GalNAc
  glycan array binding signal (z-score): -0.186
Gal3S(b1-3)GlcNAc
  glycan array binding signal (z-score): -0.18
[37]
  glycan array binding signal (z-score): -0.178
Gal3S(b1-4)Glc
  glycan array binding signal (z-score): 0.022
Gal3S(b1-4)Glc6S
  glycan array binding signal (z-score): 0.238
Gal3S(b1-4)GlcNAc
  glycan array binding signal (z-score): 0.665
Gal4S(b1-4)GlcNAc
  glycan array binding signal (z-score): -0.214
Gal6S(b1-4)Glc
  glycan array binding signal (z-score): -0.163
Gal6S(b1-4)Glc6S
  glycan array binding signal (z-score): -0.16
GalNAc(a1-3)Gal
  glycan array binding signal (z-score): -0.191
GalNAc(a1-3)GalNAc
  glycan array binding signal (z-score): -0.202
